Data as given in US20230122503A1, “ANTI-PSMA RADIOCONJUGATES AND USES THEREOF” (Janssen Biotech, Inc., priority 2021, published 2023).

Assays:
[1] = system: HUVEC cells, known to be PSMA negative; assay: In vitro cytotoxicity of PSMA ADCs (vcMMAF) on HUVEC cells (non-specific killing); type: cell-based, human; conditions: mAb conjugated to vcMMAF; for IC50: PSMA− HUVEC cells, 72h
Protocol: Selected mAbs were conjugated to a monomethyl auristatin F (MMAF) payload to confirm results from initial screening. […] To quench the TCEP (Gololobov and Kasukhin (1991) Tetrahedron 48, 1353-1406; […], et. al. (2017) ACS Omega 2, 5785-57) 5 mM 3-amino-propyl-azide was added to the reaction and incubated for 30 min at 37° C. […] ADCs were separated from reaction components and buffer exchanged into dPBS by diafiltration. […] DAR was also calculated by liquid chromatography/mass spectroscopy. Deconvolution of the extracted charge state allowed for the identification and relative fraction (of total) for each light chain and heavy chain species present, as well as their respective degrees of labeling with either maleimide-PEG4-vcPAB-MMAF, N-ethyl maleimide, or (in the case of heavy chain) a combination of both. Total DAR (panel average of 3.4±0.5) for the ADC was calculated from the sum of light chain and heavy chain labeled only with maleimide-PEG4-vcPAB-MMAF. Size exclusion chromatography was carried out to determine percent monomeric fraction based on migration time relative to unlabeled mAbs. In vitro cytotoxicity of selected ADCs was also assessed in a panel of cell lines expressing various levels of PSMA, and a human endothelial cell line HUVEC which was used as a surrogate for non-specific killing. […] Twenty four hours after plating, cells were treated with varying concentrations of the ADCs and then set at 37 C, 5% CO2. Following 72h of treatment, cell viability was assessed by Cell Titer Glo (Promega), according to manufacturer's instructions. Relative luminescence units (RLU) were detected in an Envision plate reader (Perkin Elmer) and then normalized to untreated controls.

[2] = Serum stability in human serum by SEC-FDS; type: in vitro ADME
Protocol: To assess stability in serum, the anti-PSMA antibodies were labeled with AlexaFluor488 (AF488) and incubated (Cone: 1 mg/mL) for 1 week in human serum at 37° C. Following incubation aggregation and fragmentation were evaluated by SEC-FDS (Size exclusion chromatography with fluorescence detection) method. […] SEC-FDS was run by eluting with PBS at 1 mL/min while monitoring A280 and fluorescence (494 nm (emission) & 520 nm (excitation)).

[3] = system: 22RV1 cells, expressing low levels of PSMA; assay: Cytotoxicity of PSMA ADCs (MMAF or DX8951) on 22RV1 cells; type: cell-based; conditions: MMAF conjugate, 6d
Protocol: Selected mAbs were conjugated to a monomethyl auristatin F (MMAF) payload to confirm results from initial screening. Briefly, 600 ug of each mAb (1.2 mg/mL in 1×dPBS) was adjusted to pH 7.5 by addition of 1M potassium phosphate containing 50 mM EDTA (1:10 volumes). pH adjusted mAb was mixed with TCEP to a final concentration of 0.6 mM and incubated at 37° C. for 1 hr. To quench the TCEP (Gololobov and Kasukhin (1991) Tetrahedron 48, 1353-1406; Kantner, et. al. (2017) ACS Omega 2, 5785-57) 5 mM 3-amino-propyl-azide was added to the reaction and incubated for 30 min at 37° C. […] ADCs were separated from reaction components and buffer exchanged into dPBS by diafiltration. […] DAR was also calculated by liquid chromatography/mass spectroscopy. […] Total DAR (panel average of 3.4±0.5) for the ADC was calculated from the sum of light chain and heavy chain labeled only with maleimide-PEG4-vcPAB-MMAF. […]
Selected mAbs were also conjugated via maleimide/thiol chemistry to an exatecan methansulfonate derived camptothecinoid DX8951, containing a Gly-Gly-Phe-Gly linker (SEQ ID NO: 340) to facilitate cleavage and release of the payload. […] Final molar concentration of ADC was determined by bicinchoninic acid assay, using unconjugated mAb as a standard. DAR was determined to be 8.0 for all ADCs by Liquid chromatography/mass spectroscopy as described in section 4.6. […]

Molecule	IC50 [1] [nM]	Aggregation (%) ([2]; 37° C., 7 days, SEC-FDS)	Fragmentation (%) ([2]; 37° C., 7 days, SEC-FDS)	Aggregation (%) ([2]; Time 0, SEC-FDS)	Fragmentation (%) ([2]; Time 0, SEC-FDS)	IC25 [3] [nM]	Ratio of HUVEC/C4-2B IC50 [1]
PSMB1154 (antibody) heavy: EVQLVESGGGEVQPGRSLRLTCAVSGFTLSRYGMHWVRQAPGKGLEWAALISYDGSNRYYADSVKGRFTISRDNSKNTVFLQMNSLRAEDTAVYYCARERESSGWFEGYFDYWGQGTTVTVSS[human IgG1 constant region not given here] light: QLVLTQPPSVSVAPGQTARITCGGNNIGSKSVHWYQQKPGQAPVLVVYDNSDRPSGIPERFSGSNSGNTATLTISRVEVGDEADYYCQVWDSSSDHVVFGGGTKLTVLGQPKAAPSVTLFPPSSEELQANKATLVCLISDFYPGAVTVAWKADSSPVKAGVETTTPSKQSNNKYAASSYLSLTPEQWKSHRSYSCQVTHEGSTVEKTVAPTECS	212	0.6	0	0	0	0.1	–
PSMB1157 (antibody) heavy: EVQLVESGGGVVQPGRSLRLSCAASVRTFSGYGMHWVRQVPGKGLEWVAVISYDGSNRYYADSVKGRFTISRDNSKNTLYLQMNSLRTEDTAVYYCARDGNWGSLDLYFDLWGRGTLVTVSS[human IgG1 constant region not given here] light: QSVLTQPPSVSGAPGQRVTISCTGSSSNIGADYDVHWYQQLPGTAPKLLIYVNNNRPSGVPDRFSGSRSGTSASLAITGLQADDEADYYCQSYDNTLSGVVFGGGTKLTVLGQPKAAPSVTLFPPSSEELQANKATLVCLISDFYPGAVTVAWKADSSPVKAGVETTTPSKQSNNKYAASSYLSLTPEQWKSHRSYSCQVTHEGSTVEKTVAPTECS	400	0.6	0	0	0	0.4	14769
